We go through 90 molecules from PubChem BioAssay AID463173 (ICCB-Longwood Screening Facility, Harvard Medical School, 2010).

Screen size: about 52,000 compounds; about 1,700 (3.3%) were called active. Rule as the data show it: active = survival mostly below about 52% (no sharp cut-off); inactive = mostly above about 56%. This is one part of the list.

The test system of the test is Wild type. The test is described as follows: S. aureus survival, RN4220 and DeltatarO strains – OD600, teichoic acid synthesis inhibitors, primary screen (AID 463173). The note with it: S. aureus RN4220 wild type/DeltatarO growth, OD600, 18 h, active compounds read low, screened at 18.75 µg/mL (by protocol).
With `CCCCN(C)CCCNC(=O)CN1C(=O)COc2ccc(S(=O)(=O)N3CCC(C)CC3)cc21`, the survival was inactive: 77%. `CCOC(=O)N1CCc2c(sc(NCc3sccc3C)c2C(=O)Nc2cc(OC)ccc2OC)C1`: the survival is inactive: 65%.

For `COc1ccc(-c2cc(C(F)(F)F)nc(SCC(=O)NN3CCN(C)CC3)n2)cc1`, the survival was inactive: 101%.

As for `CCOc1ccccc1-n1c(C)nc2cc(C(=O)O)ccc21`, the survival is inactive: 81%. The result for `CCCCNC(=O)C1CCN(C(=O)N2CC(C)Oc3ccc(Cl)cc32)CC1` (stereo not given) reads inactive: 83%. Regarding `COc1ccc(NC(=O)c2c(C(=O)Nc3ccccc3)sc3nc(C)cc(=O)n23)cc1`, the survival was inactive: 93%. Turning to `CCOc1ccccc1NC(=O)Cc1coc2c(C)c(C)ccc12`, the survival was inactive: 114%.

`CCOc1ccccc1NC(=O)CN1C(=O)COc2ccc(S(=O)(=O)N3CCCCCC3)cc21`: the survival is inactive: 94%. As to `Cc1cccc(C(=O)N2CCc3cc(CNC(=O)c4ccnn4C)ccc32)c1`, the survival was inactive: 90%. Turning to `Cc1ccc(CCNC(=O)C(CC(C)C)NS(=O)(=O)c2ccc3c(c2)oc(=O)n3C)cc1` (stereo not given), the survival is inactive: 79%.

In the case of `N#C/C(=C\c1ccc(F)cc1)C(=O)NCC1CCCO1` (stereo not given), the survival is inactive: 76%. Then `Cn1cnc(S(=O)(=O)N2CCCC(C(=O)NCc3ccccc3Cl)C2)c1` (stereo not given), with inactive: 124%. For the molecule `COc1cccc(NC(=O)CSc2nc3ccc(NC(=O)c4ccco4)cc3s2)c1`, the survival is inactive: 90%.

`CCc1nn(CC(=O)NCCCOC)c(=O)c2cc3occc3n12`: the survival is inactive: 122%.

On to `O=C(CCCn1c(=O)[nH]c2ccccc2c1=O)NCc1ccccc1Cl`, for which the survival is inactive: 124%. Then `Cc1ccc(-c2nnc(Nc3ccc(Br)cc3)c3ccccc23)cc1S(=O)(=O)N1CCCCC1`, with inactive: 89%; and `CCCN(CCC)CCCNC(=O)Cn1cnc2onc(-c3ccc(F)cc3)c2c1=O`, with inactive: 73%. `CCOc1ccc(C(=O)N2CCN(c3ccccc3)CC2)cc1`: the survival was inactive: 100%.

In the case of `O=C(Cn1cnc2c(nc3n2CCCCC3)c1=O)Nc1ccc(F)cc1`, the survival is inactive: 91%. Consider `N=c1nc(N)nc2n1NC(c1ccc(F)cc1)=CS2`, for which the survival is inactive: 108%.

For the molecule `CN(C(=O)c1nc(-c2cccc(F)c2)n2c1CCCCC2)c1ccccc1F`, the survival was inactive: 114%. On to `Cc1cc(C)c2c(-n3cccc3)c(C(=O)NCCc3ccc(Cl)cc3)sc2n1`, for which the survival was inactive: 118%. Turning to `O=C(CN1C(=O)C(c2ccc(F)cc2)=NC12CCCCCC2)Nc1ccc(F)c(Cl)c1`, the survival was inactive: 76%.

For the molecule `CC(=O)Nc1ccc(S(=O)(=O)Nc2cc(C)nc(C)n2)cc1`, the survival was inactive: 82%.

With `COc1ccccc1NC(=O)Cn1c(=O)n(Cc2ccco2)c(=O)c2oc3ccccc3c21`, the survival is inactive: 78%.

On to `CCC(=O)NC1CC(=O)N(c2ccc3c(c2)OCCO3)C1` (stereo not given), for which the survival was inactive: 84%. For `Cc1ccc2c(=O)cc(C(=O)Nc3c(C)n(C)n(-c4ccccc4)c3=O)oc2c1C`, the survival is inactive: 86%. Take `COC(=O)C(C)Sc1nnc2cc(C)c3cc(C)cc(C)c3n12` (stereo not given): the survival was inactive: 105%. `COc1cc(-c2cc(OC)c3c(C)oc(C)c3c(=O)c2)ccc1OC(=O)c1ccccc1C`: the survival was inactive: 73%. Consider `COc1cc(C2c3c(-c4ccccc4O)n[nH]c3C(=O)N2Cc2ccncc2)ccc1O` (stereo not given), for which the survival is inactive: 97%. The result for `CCCOc1ccc(NC(=O)CC2C(=O)N(c3ccccc3)C(=O)N2CCC(C)C)cc1` (stereo not given) reads inactive: 76%. On to `CCc1ccc(NC(=O)C2CCN(c3cc(C)nc4c(-c5ccc(Cl)cc5)c(C)nn34)CC2)cc1`, for which the survival is inactive: 77%. Consider `Cc1ccccc1NC(=O)c1ccccc1NC(=O)c1ccccc1Cl`, for which the survival is inactive: 79%. `COc1cccc(CNC(=O)CC(c2ccc(F)cc2)N2Cc3ccccc3C2=O)c1` (stereo not given): the survival was inactive: 82%. Turning to `CCc1ccc(NC(=O)CSc2ccc3nnc(CCNS(=O)(=O)c4ccc(OC)cc4)n3n2)cc1`, the survival is inactive: 92%. For the molecule `Cc1cc(OCCCSc2nc(-c3ccc(C(C)(C)C)cc3)nc3cc(=O)[nH]n23)ccc1Cl`, the survival is inactive: 70%. Then `CC(C)c1ccc(NC(=O)CCCc2nc(-c3ccc(Cl)cc3)no2)cc1`, with inactive: 85%; and `COc1cc(Cl)c(NC(=O)C2CCN(S(=O)(=O)c3c(C)noc3/C=C/c3ccccc3F)CC2)c(OC)c1`, with inactive: 68%. Then `CC1CCCC(C)N1C(=O)c1ccccc1N` (stereo not given), with inactive: 108%. For the molecule `Cc1nc2ccc(S(=O)(=O)CCC(=O)Nc3ccc(F)cc3C)cc2s1`, the survival is inactive: 79%.

Take `CNS(=O)(=O)c1cn(CC(=O)Nc2ccc(C)cc2C)cc1S(=O)(=O)NC`: the survival was inactive: 121%. Turning to `Cc1ccc(C2=Nc3ccccc3NC(c3ccncc3)=N2)cc1`, the survival is inactive: 87%. On to `CCOc1ccc(-c2nc3c(C#N)c[nH]n3c2NC2CCCC2)cc1`, for which the survival was inactive: 78%. Then `Cc1ccc(-c2cn3c(n2)sc2cc(C(=O)NCCCc4ccccc4)ccc23)cc1`, with inactive: 75%; and `COc1ccc(NS(=O)(=O)c2ccc(NC(=O)N3CCCC3)cc2)cc1`, with inactive: 128%; and `CCOC(=O)c1cc(-c2ccc(C)cc2)nn1Cc1ccccc1`, with active: 0%.

`O=C1OC(c2ccccc2)=N/C1=C\C=C\c1ccco1`: the survival is inactive: 110%. For `CCCC1=C(C(=O)OC)C(c2ccccc2)n2c(nc3ccccc32)N1` (stereo not given), the survival is inactive: 120%. For `CCc1ccccc1NC(=O)C1CCCN(S(=O)(=O)c2cccc3nsnc23)C1` (stereo not given), the survival is inactive: 76%.

Take `COc1ccc(CCNC(=O)CCc2c(C)nc3c(c(C)nn3-c3ccc(C)cc3)c2C)c(OC)c1`: the survival was inactive: 124%. For `CC(C)N(C(=O)CSc1nc2ccccc2n1CC(=O)N1C(C)CCCC1C)C(C)C` (stereo not given), the survival was inactive: 109%. On to `COc1ccc(Nc2cc(C)nc(-n3nc(C)cc3C)n2)cc1Cl`, for which the survival is inactive: 55%. The result for `Cc1ccc(-n2c3c(c(=O)[nH]c2=O)C(NC(=O)c2ccccc2F)(C(F)(F)F)C(=O)N3)cc1C` (stereo not given) reads inactive: 73%; that for `COc1ccc(-c2cc(C(=O)Nc3c(Cl)cccc3Cl)no2)cc1OC`, inactive: 79%.

`Cc1nc2c(C(=O)Nc3ccc(N4CCC(O)CC4)cc3)snc2c(=O)[nH]1`: the survival was inactive: 120%.

For `O=C(CN(C(=O)c1csnn1)c1cccc(F)c1)NC1CCCC1`, the survival was inactive: 104%. As to `CCc1ccc(N2CCn3c2nc2c3c(=O)n(Cc3ccc(F)cc3)c(=O)n2C)cc1`, the survival is inactive: 82%.

`COc1ccc2c(c1)c(=O)c(S(=O)(=O)c1ccc(C)c(C)c1)cn2CC(=O)Nc1ccccc1`: the survival is inactive: 84%. Turning to `CCN(CCCNC(=O)c1cc2c(=O)n(CC)c3ccccc3c2s1)c1cccc(C)c1`, the survival is inactive: 71%. As to `Cc1ccccc1-c1nc(CS(=O)(=O)CC(=O)NC(C)c2ccccc2)c(C)o1` (stereo not given), the survival was inactive: 173%. With `COc1cc(-c2noc(C3CC(=O)N(c4ccc5c(c4)OCCO5)C3)n2)cc(OC)c1OC` (stereo not given), the survival is inactive: 75%.

For the molecule `O=C(Nc1cc(F)ccc1F)C1COc2ccccc2C1` (stereo not given), the survival was inactive: 69%. Take `COc1ccc(Cl)cc1NC(=O)CN(c1cc(C)cc(C)c1)S(=O)(=O)c1c(C)n[nH]c1C`: the survival was inactive: 18%. For `CCc1ccc(NC(=O)c2cc3c(=O)n(Cc4cccs4)ccc3nc2C)cc1`, the survival was inactive: 121%. On to `CC(C)N(C(=O)CSc1nc2ccccc2c(=O)[nH]1)C(C)C`, for which the survival is inactive: 104%. In the case of `Cc1ccc(S(=O)(=O)c2nc(-c3ccccc3)oc2N2CCN(c3ccccc3)CC2)cc1`, the survival is inactive: 86%. The result for `COc1ccc(C(=O)Nc2ccc(-n3nncc3-c3ccc(OC)c(OC)c3)cc2)cc1` reads inactive: 74%; that for `Cc1ccc(-c2cc(C(=O)O)n(Cc3ccccc3)n2)cc1`, inactive: 63%. In the case of `Cc1ccc(CNc2ccc(-c3nc(-c4ccco4)no3)cc2[N+](=O)[O-])cc1`, the survival is inactive: 84%. For `Cc1nn(CC(=O)NCCc2ccccc2Cl)c(=O)c2nn(-c3ccccc3)c(C)c12`, the survival was inactive: 128%.

Turning to `CCNC(=O)NC1(C(=O)N2CCC(Cc3ccccc3)CC2)CCCCC1`, the survival was inactive: 114%. As for `O=S(=O)(c1ccccc1)N1CCC(c2ccncc2)CC1`, the survival was inactive: 76%. Consider `CCOc1ccc(CNC(=O)Cn2nc(C)c3nn(-c4ccc(Cl)cc4)c(C)c3c2=O)cc1OC`, for which the survival is inactive: 81%. As to `O=C1COc2cc(S(=O)(=O)CCC(=O)N3CCN(c4cccc(Cl)c4)CC3)c(Cl)cc2N1`, the survival was inactive: 60%. Take `CCC(C)NC(=O)c1sc2nc(C)c(C(=O)Nc3ccc(C)cc3C)c(-c3ccc(Cl)cc3)c2c1N` (stereo not given): the survival was inactive: 70%.

Consider `Cc1ccc2c(c1)c1c(c(=O)n(-c3ccccc3C)c(=O)n1CC(=O)NCCC1=CCCCC1)n2C`, for which the survival is inactive: 74%. On to `CC(=O)c1cc(-c2ccc(F)cc2)n(CCC(=O)Nc2nc3c(C)cccc3s2)c1C`, for which the survival is inactive: 68%.

As to `CCN(CC)C(=O)C1CCN(S(C)(=O)=O)CC1`, the survival is inactive: 102%. Then `COc1ccc(CNCc2c(C(=O)O)c(C)n(Cc3ccc(Cl)cc3)c2C)c(OC)c1`, with inactive: 101%; and `Cc1ccc(Cc2nc3ccccc3nc2SCC(=O)Nc2cccc(C(F)(F)F)c2)cc1`, with inactive: 60%. `COc1ccccc1/C=N/NC(=O)c1ccc(=O)n(C)c1`: the survival was inactive: 108%. Then `Cc1ccc(-c2cc(C(=O)Nc3c(C(=O)c4ccccc4)oc4ccccc34)no2)cc1F`, with inactive: 82%; and `Cc1ccc(-n2ncc3c(NC4CCCCC4)ncnc32)cc1`, with inactive: 72%; and `O=C(CNCC1CCCO1)N1CCCC1` (stereo not given), with inactive: 87%. In the case of `O=C(CN1CCSc2ccccc21)N1CCN(c2cccc(Cl)c2)CC1`, the survival was inactive: 111%.

As for `COC(=O)c1cnn(-c2ccc(C(=O)Nc3ccc(C(C)=O)cc3)cc2)c1N`, the survival is inactive: 45%.

Consider `O=C(Nc1nc2ccccc2s1)NC1CCCCC1`, for which the survival is inactive: 112%. Consider `CSc1nsc(NC(=O)Nc2ccccc2C(F)(F)F)n1`, for which the survival is inactive: 77%. For the molecule `C(=Nc1ccccc1)c1ccc(N2CCOCC2)cc1`, the survival is inactive: 93%. The result for `CCOC(=O)C1=CN(O)/C(=C\N=O)C=C1` reads inactive: 113%.
